# Laboratory results published in PubChem BioAssay AID463173 (ICCB-Longwood Screening Facility, Harvard Medical School, 2010).
# The campaign covered roughly 52,000 compounds. About 4,300 (8.3%) were called active. Cut-off read from the data, not from the text of the source: active = survival mostly below about 52% (no sharp cut-off); inactive = mostly above about 56%. The list shows a part of the results.
# Tested on: DeltatarO mutant
# Assay: S. aureus survival, RN4220 and DeltatarO strains – OD600, teichoic acid synthesis inhibitors, primary screen (AID 463173)
# Conditions: S. aureus RN4220 wild type/DeltatarO growth, OD600, 18 h, active compounds read low; concentration not given here unless noted
row,SMILES,survival
1,COc1ccc(OC)c(C(c2c(O)c3ccccc3oc2=O)c2c(C)n(C)n(-c3ccccc3)c2=O)c1 (centres undefined),inactive: 56%
2,CCc1cccc(NC(=O)CN2C(=O)CN=C(c3ccccc3F)c3cc(Cl)ccc32)c1,inactive: 94%
3,O=c1c2ccccc2nc(-c2ccco2)n1-c1ccc(Cl)cc1,inactive: 76%
4,Cc1ccc2c(c1)C1CN(C)CCC1N2 (centres undefined),inactive: 81%
5,CCCCn1c(C)c(C(=O)OCC)c2cc(OC)ccc21,inactive: 107%
6,O=C1CCCN1C(=O)c1cc(Cl)cc(Cl)c1,inactive: 101%
7,OC1CCNC2CCCCC12 (centres undefined),inactive: 94%
8,Cc1nc2ccccc2c(=O)n1-c1cccc(O)c1,inactive: 96%
9,Cc1cccc(-n2c(/C=C/c3c[nH]c4ccccc34)nc3ccccc3c2=O)c1,active: 26%
10,Cc1cccnc1-n1c(C)nc2ccccc2c1=O,inactive: 76%
11,CSc1ccc(CN2CCN(C(=O)COc3cccc(C)c3)CC2)cc1,inactive: 84%
12,CN(C)c1ccc(/C=C2/C(=O)C3CCN2CC3)cc1,inactive: 95%
13,COc1ccc(-c2nc(CN3C(=O)CN=C(c4ccccc4)c4ccccc43)c(C)o2)cc1,inactive: 84%
14,COc1ccc(C=C2C(=O)N(C)C(=O)N(C)C2=O)cc1,inactive: 103%
15,CC(C)C(=O)N1N=C(c2cccnc2)CC1(O)C(F)(F)F (centres undefined),inactive: 66%
16,CCOC(=O)C1C2NC(=S)NC1(C)Oc1ccccc12 (centres undefined),inactive: 69%
17,COc1ccc(NC(C)=O)cc1NC(=O)c1cccn(Cc2ccccc2)c1=O,inactive: 72%
18,N#Cc1cccc(NC(=O)CSc2nc3c(cc2C#N)N2CCC3CC2)c1,inactive: 88%
19,Cc1nnc(NC(=O)c2cccn(Cc3cccc([N+](=O)[O-])c3)c2=O)s1,inactive: 62%
20,CC1(C)C(C(=O)Nc2cc(Cl)ccn2)C1(C)C,inactive: 84%
21,O=c1c2ccccc2nc(-c2ccccc2)n1-c1ccccn1,inactive: 85%

row,SMILES,survival
1,O=c1cccc2n1CC1CC2CN(c2nc(Cl)nc(Cl)n2)C1 (centres undefined),inactive: 80%
2,CCOc1ccccc1CN(CCc1ccc2c(c1)OCO2)Cc1ccc(CC)cc1,inactive: 111%
3,CC(C)(C)c1ccc(OCC(=O)Nc2ccc(Cl)cc2C(=O)c2ccccc2)cc1,inactive: 70%
4,Cc1ccccc1-n1c(/C=C/c2ccc(O)cc2)nc2ccccc2c1=O,active: 35%
5,Cc1ccc(Cn2cccc(C(=O)Nc3nnc(C)s3)c2=O)cc1,inactive: 75%
6,CCN(CC)C(=O)c1ccc(NC(=O)Cn2nc(-c3ccc(C)cc3)c3ccccc3c2=O)cc1,inactive: 50%
7,c1cc2c(cc1CN1CCNCC1)OCO2,inactive: 98%
8,CCOC(=O)c1ccc(NC(=O)c2cccn(Cc3ccc(C)cc3)c2=O)cc1,inactive: 77%
9,COc1ccc(CC2C(=O)N(C)C(=O)N(C)C2=O)cc1,inactive: 75%
10,CCOC(=O)C1=C(C)NC(C)=C2C(=O)Oc3ccccc3C12 (centres undefined),inactive: 62%
11,N#Cc1cc2c(nc1SCC(=O)Nc1ccc(F)c(Cl)c1)C1CCN2CC1,active: -2%
12,c1cc(CN2CCNCC2)ccn1,inactive: 105%
13,O=C1CC(c2ccc(F)cc2)c2c(c3ccccc3oc2=O)O1 (centres undefined),inactive: 82%
14,COc1ccc(CCNCc2ccc3c(c2)n(C)c(=O)n3C)cc1,inactive: 87%
15,O=C(Nc1ccc(Br)cc1C(=O)c1ccccc1Cl)c1ccccc1F,inactive: 52%
16,CCOc1ccc(NC(=O)c2cccn(Cc3cccc(Cl)c3)c2=O)cc1,inactive: 67%
17,CN1C(=O)C(Cc2nc3ccccc3c(=O)n2-c2ccccc2)c2ccccc21 (centres undefined),inactive: 85%
18,CCOC(=O)CC1=C(C(=O)OCC)C2(C(=O)N(C)c3ccccc32)C(C#N)=C(N)O1 (centres undefined),active: 0%
19,CC(c1ccccc1F)n1cc(C(=O)NC2CCCC2)nn1 (centres undefined),inactive: 88%
20,Cc1oc(-c2ccccc2Cl)nc1CN1C(=O)CN=C(c2ccccc2)c2cc(Cl)ccc21,inactive: 77%
21,CCCOc1ccc(CCN)cc1Cl,inactive: 74%

row,SMILES,survival
1,COc1ccc(NC(=O)CCc2nc(C3=CCN(Cc4cccc(Cl)c4)CC3)no2)cc1OC,inactive: 67%
2,Clc1ccc(NCCN2CCCCCC2)nn1,inactive: 86%
3,O=c1c2ccccc2nc(/C=C/c2ccccc2O)n1-c1ccc(Br)cc1,active: 41%
4,c1ccc2c(CCNC3CCNCC3)c[nH]c2c1,inactive: 75%
5,CCCC12CN3CC(C)(CN(C1)C3c1ccccn1)C2=O (centres undefined),inactive: 84%
6,Cc1cc(N)n(C2CCN(C)CC2)n1,inactive: 94%
7,COc1ccccc1NC(=O)N(Cc1ccc2c(c1)OCO2)C1CCN(Cc2ccccc2)CC1,inactive: 88%
8,Cc1c(Cl)cccc1NC(=O)CN1C(=O)C(C)N=C(c2ccccc2)c2ccccc21 (centres undefined),inactive: 71%
9,COc1cc(C(c2c(O)c3ccccc3oc2=O)c2c(C)n(C)n(-c3ccccc3)c2=O)ccc1OCC(=O)O (centres undefined),inactive: 82%
10,N#CC(C#N)=Cc1cc(Br)cs1,inactive: 95%
11,O=C(Nc1ccc(Cl)cc1C(=O)c1ccccc1)c1ccccc1Br,active: 24%
12,Nc1c(C(=O)Nc2ccc(Br)cc2F)sc2nc3c(cc12)N1CCC3CC1,inactive: 132%
13,O=C(CN1CCCC1=O)NCCc1ccccc1,inactive: 82%
14,Nc1c(C(=O)Nc2ccc(Cl)cc2)sc2nc3c(cc12)N1CCC3CC1,inactive: 55%
15,Cn1cc(/C=C/c2nc3ccccc3c(=O)n2-c2ccccc2)c2ccccc21,inactive: 77%
16,O=C(Nc1ccc2c(c1)OCO2)c1cccn(Cc2cccc(F)c2)c1=O,inactive: 84%
17,O=C(c1ccc2ccccc2c1)C12CN3CN(CN(C3)C1)C2,inactive: 101%
18,COc1cc(C(c2c(O)c3ccccc3oc2=O)c2c(C)n(C)n(-c3ccccc3)c2=O)ccc1O (centres undefined),inactive: 53%
19,CN1CCN(c2oc(-c3ccc(COc4ccccc4)o3)nc2C#N)CC1,active: 41%
20,Cc1nnc(NC(=O)c2cccn(Cc3cccc(Cl)c3)c2=O)s1,inactive: 78%
21,O=c1c2ccccc2nc(/C=C/c2ccccc2)n1-c1ccccc1F,inactive: 69%

row,SMILES,survival
1,COc1ccc(CN2C(=O)CC(=O)NC2=S)cc1,inactive: 80%
2,Cc1cccc(CSc2nc3c(cc2C#N)CN(C)CC3)c1,inactive: 101%
3,COc1cccc(/C=C/c2nc3ccccc3c(=O)n2-c2ccc(Cl)cc2)c1OC,inactive: 88%
4,c1cc(C2CCNCC2)ccn1,inactive: 86%
5,N#CC(C#N)=Cc1ccc(N2CCCC2)cc1,inactive: 67%
6,CCCC12CN3CC(CCC)(CN(C1)C3c1ccccn1)C2=O (centres undefined),inactive: 84%
7,COc1ccc(C)cc1NC(=O)c1cccn(Cc2cccc([N+](=O)[O-])c2)c1=O,inactive: 86%
8,C=CCN1C(=O)CN=C(c2cccs2)c2c1sc1c2CCC1,inactive: 92%
9,Cc1ccc(-n2c(/C=C/c3cccs3)nc3ccccc3c2=O)cc1C,inactive: 80%
10,CN1CCN(C2CC3(C)C(CCC4C3CCC3(C)C(O)C(N5CCN(C)CC5)CC43)CC2O)CC1 (centres undefined),inactive: 76%
11,CCOc1ccc2nc(NC(=O)c3cccn(Cc4ccccc4)c3=O)sc2c1,inactive: 94%
12,CN1CCc2nc3sc4c(=O)[nH]c(=O)[nH]c4c3cc2C1,inactive: 79%
13,CSc1ccc(CN2CCN(C(=O)COc3ccc(C)cc3)CC2)cc1,inactive: 101%
14,O=C(Nc1ccc(Cl)cc1C(=O)c1ccccc1)c1cc(Cl)cc(Cl)c1,inactive: 150%
15,COc1ccc(OC)c(NC(=O)Cn2cc(C(=O)c3ccccc3)c3ccccc32)c1,inactive: 59%
16,COc1ccc(-c2nc(CN3C(=O)CN=C(c4ccccc4)c4cc(Cl)ccc43)c(C)o2)cc1,inactive: 68%
17,CCOc1ccc2nc(NC(=O)c3cccn(Cc4ccc(Cl)cc4)c3=O)sc2c1,inactive: 75%
18,COc1ccc(OC)c(/C=C2\C(=O)C3CCN2CC3)c1,inactive: 74%
19,CN1CCCC1c1ccc(N)nc1 (centres undefined),inactive: 67%
20,CCc1ccccc1NC(=O)c1cccn(Cc2ccccc2F)c1=O,active: 47%
21,O=C(Nc1ccc2c(c1)OCCO2)c1cccn(Cc2cccc(F)c2)c1=O,inactive: 84%
